Data: PubChem BioAssay AID624417 (National Center for Advancing Translational Sciences (NCATS), 2012)
Hit rate of the full screen: of about 410,000 compounds, about 6,400 (1.6%) were called active. Inconclusive means that the source gave no clear call. Such entries were picked first, then a sample of the others. The call rests on the fitted dose curve; in most records, active means well fitted inhibition curve with a large enough effect; inconclusive means small, poorly fitted or top-dose-only effect; inactive means no such curve, though single readings can be large or run the other way. Potencies of inconclusive entries are left out as doubtful fits.

target: Glucagon-like peptide 1 receptor (Homo sapiens) (UniProt P43220); test: qHTS of GLP-1 Receptor Inverse Agonists (Inhibition Mode); settings: HEK293 GLP-1R CRE-luciferase, luminescence, 24 h; Potency: GLP-1R form is constitutively active unless noted; series mostly up to 38.3 µM; further: nearly all actives have a fitted effect of over 55% in size
Outline: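 Seeding at 200 cells/uL, 12 h culture, 24 hr compound treatment, then luciferase reagent and a luminescence read; cells are HEK293 stably expressing a constitutively active GLP-1R plus cAMP-responsive luciferase.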
Potency means the concentration at half of the fitted maximal effect; tags describe the fitted curve by direction and shape.

Sequence of UniProt P43220 (P43220 whole entry, looked up): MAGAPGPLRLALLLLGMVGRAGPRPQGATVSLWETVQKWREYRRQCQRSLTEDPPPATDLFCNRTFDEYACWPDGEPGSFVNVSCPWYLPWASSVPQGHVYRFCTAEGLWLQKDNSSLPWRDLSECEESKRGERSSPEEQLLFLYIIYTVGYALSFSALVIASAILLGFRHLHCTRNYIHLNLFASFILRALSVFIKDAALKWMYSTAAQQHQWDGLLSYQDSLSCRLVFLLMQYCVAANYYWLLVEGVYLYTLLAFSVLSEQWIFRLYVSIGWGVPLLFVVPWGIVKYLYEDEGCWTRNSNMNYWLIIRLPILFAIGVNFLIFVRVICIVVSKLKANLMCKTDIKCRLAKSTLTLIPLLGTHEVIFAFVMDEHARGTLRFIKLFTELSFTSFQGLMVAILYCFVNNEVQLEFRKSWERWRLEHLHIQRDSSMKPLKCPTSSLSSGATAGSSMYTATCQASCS

| SMILES | Potency |
| --- | --- |
| O=C(O)CCC(=O)NCCC1=c2ccccc2=N/C1=C\c1c(O)n(Cc2ccc(F)cc2)c(=S)[nH]c1=O | inconclusive [inhibitor, partial curve, poor fit] |
| NCCc1ccc(OCc2ccccc2)c(OCc2ccccc2)c1 | inconclusive [inhibitor, partial curve, poor fit] |
| C[C@@H]1O[C@@H](O[C@H]2C[C@@H](O)[C@]3(CO)[C@@H]4C(CC[C@]3(O)C2)[C@@]2(O)CC[C@H](C3COC(=O)C3)[C@@]2(C)C[C@H]4O)[C@H](O)[C@H](O)[C@H]1O (stereo partly specified) | active: 1 µM [setting not given] |
| CCCNC(=O)c1cc2c(c(-c3cccc(-c4cc5ccccc5o4)c3)n1)[C@@H](CCO)N(C(=O)NC(C)C)C2 | inconclusive [inhibitor, partial curve, poor fit] |
| CCN1CCN(Cc2cc(Br)cc(Br)c2O)CC1 | inconclusive [inhibitor, partial curve] |
| CCOc1ccc(CN(CCc2ccc3c(c2)OCO3)Cc2ccc(CC)cc2)cc1 | inconclusive [inhibitor, partial curve] |
| COc1ccc(NC(=O)N2Cc3ccccc3-n3nncc3C2)cc1 | inactive |
| CCCCC[C@H]1CCCCC[C@@H](O)C[C@H](O)[C@H](O)/C=C/C(=O)O1 | inconclusive [inhibitor, single point] |
| O=C(c1ccc(-c2ccccc2)cc1)C1CCCN(Cc2ccn[nH]2)C1 (stereo unspecified) | inconclusive [inhibitor, partial curve] |
| COc1cccc(C(=O)C2CN(C)CC2c2ccc(Cl)cc2)c1 (stereo unspecified) | inconclusive [inhibitor, single point] |
| Cc1ccc2[nH]c(C)c(CCNCc3ccco3)c2c1 | inconclusive [inhibitor, partial curve] |
| O=c1c2ccccc2nc(/C=C/c2ccc([N+](=O)[O-])o2)n1-c1ccc(O)cc1 | inconclusive [inhibitor, single point] |
| COc1cc(O)c2c(c1)/C=C/C[C@H](O)[C@H](O)C(=O)CCC[C@H](C)OC2=O | inactive |
| COc1cc2c(cc1/C=C/[N+](=O)[O-])OCO2 | inconclusive [inhibitor, partial curve, poor fit] |
| CC(Cc1ccccc1Sc1ccccc1)N(C)C (stereo unspecified) | inconclusive [inhibitor, partial curve] |
| COC(=O)C(O)(c1ccc(NC(=S)NC(=O)c2ccc(Cl)cc2Cl)cc1)C(F)(F)F (stereo unspecified) | inconclusive [inhibitor, partial curve, poor fit] |
